This assay deals with T1, GST tagged ANK domain of Shank3 (residues 148-345) (mouse, UniProt Q4ACU6 148-345).
T1 sequence (looked up): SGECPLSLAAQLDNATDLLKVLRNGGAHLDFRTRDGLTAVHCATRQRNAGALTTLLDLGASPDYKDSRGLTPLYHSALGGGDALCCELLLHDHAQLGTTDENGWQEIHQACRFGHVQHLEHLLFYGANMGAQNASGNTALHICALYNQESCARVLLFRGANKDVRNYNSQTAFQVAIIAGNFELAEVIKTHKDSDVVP
The assay is described as follows: pull-down.

This is an account of results in publication PMC10755590 (Redox Biology, 2023).

B1: His6 tagged SOAR domain of STIM1 ([…]) (domain or fragment)
chain: not shown
With B1, the binding result is listed as “binds”.
